Assay results as given in article PMC10384177.
Results are given in words; binding and its absence hold for the method and conditions named. Some binding calls cover weakened binding; strength is not graded here. Tags and fused reporters may be left off the sequences shown.

Protein sequences, listed by entry. Tags and fused reporters are not part of them.
UniProt Q8VZS8: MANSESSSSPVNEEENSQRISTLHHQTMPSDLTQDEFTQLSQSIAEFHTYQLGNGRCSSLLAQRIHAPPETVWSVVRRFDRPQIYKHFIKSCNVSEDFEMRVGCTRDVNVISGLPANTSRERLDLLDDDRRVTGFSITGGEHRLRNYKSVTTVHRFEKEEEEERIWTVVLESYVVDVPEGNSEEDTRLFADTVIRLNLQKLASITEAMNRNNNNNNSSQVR
UniProt O49686: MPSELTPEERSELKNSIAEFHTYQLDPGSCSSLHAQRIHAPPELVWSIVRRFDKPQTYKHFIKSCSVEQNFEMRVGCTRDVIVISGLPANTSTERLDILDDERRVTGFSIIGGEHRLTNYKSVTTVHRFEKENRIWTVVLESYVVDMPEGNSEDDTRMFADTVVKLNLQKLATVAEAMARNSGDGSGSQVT

T1: PIA1 (clade F PP2C protein phosphatase), BD-PIA1 two-hybrid fusion (Arabidopsis thaliana) (UniProt Q9SIU8)
T1 sequence: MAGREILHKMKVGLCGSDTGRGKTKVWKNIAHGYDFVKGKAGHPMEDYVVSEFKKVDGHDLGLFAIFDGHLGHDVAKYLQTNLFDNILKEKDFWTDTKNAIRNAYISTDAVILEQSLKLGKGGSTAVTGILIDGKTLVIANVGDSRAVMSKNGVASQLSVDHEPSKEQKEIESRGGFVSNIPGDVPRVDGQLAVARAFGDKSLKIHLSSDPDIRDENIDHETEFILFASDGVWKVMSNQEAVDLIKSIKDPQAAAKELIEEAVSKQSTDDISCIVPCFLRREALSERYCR

B1: SnRK2.5, two-hybrid fusion (enzyme, UniProt Q9FFP9 1-360)
chain: MDKYEVVKDLGAGNFGVARLLRHKETKELVAMKYIERGRKIDENVAREIINHRSLRHPNIIRFKEVILTPTHLAIVMEYASGGELFERICNAGRFSEAEARYFFQQLICGVDYCHSLQICHRDLKLENTLLDGSPAPLLKICDFGYSKSSLLHSRPKSTVGTPAYIAPEVLSRREYDGKHADVWSCGVTLYVMLVGGYPFEDPDDPRNFRKTIQRIMAVQYKIPDYVHISQECRHLLSRIFVTNSAKRITLKEIKKHPWYLKNLPKELTEPAQAAYYKRETPSFSLQSVEDIMKIVGEARNPAPSSNAVKGFDDDEEDVEDEVEEEEEEEEEEEEEEEEEEDEYEKHVKEAHSCQEPPKA
B2: SnRK2.1, two-hybrid fusion (enzyme, UniProt P43292 1-353)
chain: MDKYDVVKDLGAGNFGVARLLRHKDTKELVAMKYIERGRKIDENVAREIINHRSLKHPNIIRFKEVILTPTHLAIVMEYASGGELFDRICTAGRFSEAEARYFFQQLICGVDYCHSLQICHRDLKLENTLLDGSPAPLLKICDFGYSKSSILHSRPKSTVGTPAYIAPEVLSRREYDGKHADVWSCGVTLYVMLVGAYPFEDPNDPKNFRKTIQRIMAVQYKIPDYVHISQECKHLLSRIFVTNSAKRITLKEIKNHPWYLKNLPKELLESAQAAYYKRDTSFSLQSVEDIMKIVGEARNPAPSTSAVKSSGSGADEEEEEDVEAEVEEEEDDEDEYEKHVKEAQSCQESDKA
B3: SnRK2.4, two-hybrid fusion (enzyme, UniProt P43291 1-363)
chain: MDKYELVKDIGAGNFGVARLMKVKNSKELVAMKYIERGPKIDENVAREIINHRSLRHPNIIRFKEVVLTPTHLAIAMEYAAGGELFERICSAGRFSEDEARYFFQQLISGVSYCHAMQICHRDLKLENTLLDGSPAPRLKICDFGYSKSSLLHSRPKSTVGTPAYIAPEVLSRREYDGKMADVWSCGVTLYVMLVGAYPFEDQEDPKNFRKTIQKIMAVQYKIPDYVHISQDCKNLLSRIFVANSLKRITIAEIKKHSWFLKNLPRELTETAQAAYFKKENPTFSLQTVEEIMKIVADAKTPPPVSRSIGGFGWGGNGDADGKEEDAEDVEEEEEEVEEEEDDEDEYDKTVKEVHASGEVRIS
B4: RCAR2, two-hybrid fusion (receptor, UniProt Q1ECF1 1-211)
chain: MEMIGGDDTDTEMYGALVTAQSLRLRHLHHCRENQCTSVLVKYIQAPVHLVWSLVRRFDQPQKYKPFISRCTVNGDPEIGCLREVNVKSGLPATTSTERLEQLDDEEHILGINIIGGDHRLKNYSSILTVHPEMIDGRSGTMVMESFVVDVPQGNTKDDTCYFVESLIKCNLKSLACVSERLAAQDITNSIATFCNASNGYREKNHTETNL
B5: SnRK2.8, two-hybrid fusion (enzyme, UniProt Q9M9E9 1-343)
chain: MERYEIVKDIGSGNFGVAKLVRDKFSKELFAVKFIERGQKIDEHVQREIMNHRSLIHPNIIRFKEVLLTATHLALVMEYAAGGELFGRICSAGRFSEDEARFFFQQLISGVNYCHSLQICHRDLKLENTLLDGSEAPRVKICDFGYSKSGVLHSQPKTTVGTPAYIAPEVLSTKEYDGKIADVWSCGVTLYVMLVGAYPFEDPSDPKDFRKTIGRILKAQYAIPDYVRVSDECRHLLSRIFVANPEKRITIEEIKNHSWFLKNLPVEMYEGSLMMNGPSTQTVEEIVWIIEEARKPITVATGLAGAGGSGGSSNGAIGSSSMDLDDLDTDFDDIDTADLLSPL

Target: T1, PIA1 (clade F PP2C protein phosphatase), BD-PIA1 two-hybrid fusion (Arabidopsis thaliana)
Experiment: two-hybrid; yeast AH109, BD-PIA1 as bait; in the presence of ABA; growth on selection media; 28 °C

binding	Molecule
binds	B1
binds	B2
binds	B3
binds	B4
binds	B5

Target: T1, PIA1 (clade F PP2C protein phosphatase), BD-PIA1 two-hybrid fusion (Arabidopsis thaliana)
Experiment: two-hybrid; yeast AH109, BD-PIA1 as bait; no exogenous ABA; growth on selection media after SD/-Trp/-Leu, SD/-Trp/-Leu/-His with 3-AT, X-alpha-Gal staining; 28 °C

binding	Molecule
binds	B1
binds	B2
binds	B3
binds	B4
binds	B5

Target: T1, PIA1 (clade F PP2C protein phosphatase), BD-PIA1 two-hybrid fusion (Arabidopsis thaliana)
Experiment: as above
Remark: another data set of the same source

binding	Molecule
no binding	RCAR12, two-hybrid fusion (from UniProt Q8VZS8 1-221) (receptor)
no binding	RCAR11, two-hybrid fusion (from UniProt O49686 1-191) (receptor)
